In all, about 310,000 compounds went through this assay and about 14,000 (4.5%) showed an effect of 50% or more. The effect is printed as a negative number. Some of the results follow.
Biological target: human ether-à-go-go-related gene (hERG) potassium channel (human, UniProt Q12809)
Assay: primary screen, population patch clamp on CHO cells stably expressing hERG
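Also: peak tail current of the secondary pulse compared with the same well before compound.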

Chain of human ether-à-go-go-related gene (hERG) potassium channel (Q12809 whole entry, looked up): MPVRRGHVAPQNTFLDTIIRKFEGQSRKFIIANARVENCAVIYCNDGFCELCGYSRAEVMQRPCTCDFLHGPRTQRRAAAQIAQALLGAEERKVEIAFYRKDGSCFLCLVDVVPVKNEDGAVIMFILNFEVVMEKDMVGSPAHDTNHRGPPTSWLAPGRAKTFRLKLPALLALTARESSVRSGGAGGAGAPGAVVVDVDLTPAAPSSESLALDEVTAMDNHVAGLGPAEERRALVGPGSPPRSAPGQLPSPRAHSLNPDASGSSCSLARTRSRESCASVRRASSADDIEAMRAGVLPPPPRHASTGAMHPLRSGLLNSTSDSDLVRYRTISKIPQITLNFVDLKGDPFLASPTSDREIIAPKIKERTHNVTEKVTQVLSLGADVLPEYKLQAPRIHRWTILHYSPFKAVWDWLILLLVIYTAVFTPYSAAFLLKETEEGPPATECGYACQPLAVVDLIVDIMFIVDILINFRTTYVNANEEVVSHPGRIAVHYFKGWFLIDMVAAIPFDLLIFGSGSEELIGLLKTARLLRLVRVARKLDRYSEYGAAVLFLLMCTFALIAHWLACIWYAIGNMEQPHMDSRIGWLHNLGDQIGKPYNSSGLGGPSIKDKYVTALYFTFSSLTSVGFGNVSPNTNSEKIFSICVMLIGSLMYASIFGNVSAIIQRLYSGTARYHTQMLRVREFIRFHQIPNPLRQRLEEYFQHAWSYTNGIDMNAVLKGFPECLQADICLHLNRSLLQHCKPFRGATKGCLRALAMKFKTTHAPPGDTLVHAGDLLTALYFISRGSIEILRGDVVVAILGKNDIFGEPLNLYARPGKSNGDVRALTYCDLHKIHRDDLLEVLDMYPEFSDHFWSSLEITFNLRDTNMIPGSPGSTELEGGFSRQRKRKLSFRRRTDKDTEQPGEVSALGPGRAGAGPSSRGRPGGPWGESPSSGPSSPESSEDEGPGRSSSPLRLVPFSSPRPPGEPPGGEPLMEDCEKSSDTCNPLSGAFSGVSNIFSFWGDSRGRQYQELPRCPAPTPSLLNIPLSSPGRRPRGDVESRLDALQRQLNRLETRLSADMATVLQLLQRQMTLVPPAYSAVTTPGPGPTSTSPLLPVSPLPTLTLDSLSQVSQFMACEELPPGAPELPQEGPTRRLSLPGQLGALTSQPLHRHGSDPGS

With `CN(C)C(=N)N=C(N)N.Cl` as the molecule, how does the “hERG current change (%, negative = inhibition) at 10uM” value read?
The value was 20.3%.

How did the “hERG current change (%, negative = inhibition) at 10uM” value turn out when `Nn1c(SCC(=O)NCC2CCCO2)nnc1-c1ccc(OC(F)F)cc1` (centres unmarked) was run?
The value was -68.5%.

Which “hERG current change (%, negative = inhibition) at 10uM” value does the source give for `c1ccc(Nc2cc(Nc3ccccc3)[nH]n2)cc1` here?
Its value is -0.31%.

For `CCC(C)C(=O)N1c2ccccc2C(=C2SC(C(=O)OC)=C(C(=O)OC)S2)C(=S)C1(C)C` (centres unmarked), which “hERG current change (%, negative = inhibition) at 10uM” value is on record?
The value was -1.24%.

With `Cc1cccc(NC(=O)NC2CC(=O)N(c3ccc4c(c3)OCCO4)C2)n1` (centres unmarked) as the molecule, how does the “hERG current change (%, negative = inhibition) at 10uM” value read?
The value was -18.8%.

How did the “hERG current change (%, negative = inhibition) at 10uM” value turn out when `COc1ccc(/C=C/C(=O)OCC(=O)Nc2cc(C(F)(F)F)ccc2Cl)cc1` was run?
The value was 10.5%.

How did the “hERG current change (%, negative = inhibition) at 10uM” value turn out when `NC(=O)[C@@H]1CC2(CC(c3cccc(NC(=O)CC(c4ccccc4)c4ccccc4)c3)=NO2)CN1C(=O)[C@@H]1CCC(=O)N1` (some centres unmarked) was run?
The value was -4.11%.

With `Cc1cc(C(=O)CN2C(=O)C(=O)N(Cc3ccco3)C2=O)c(C)n1CCc1ccccc1` as the molecule, how does the “hERG current change (%, negative = inhibition) at 10uM” value read?
The value was -29%.

With `COc1ccc(C(CNC(=O)C(CCSC)NC(=O)c2ccccc2OC)N2CCCCC2)cc1` (centres unmarked) as the molecule, how does the “hERG current change (%, negative = inhibition) at 10uM” value read?
The value was -37.7%.

Which “hERG current change (%, negative = inhibition) at 10uM” value does the source give for `COc1ccc(NC(=O)NCCCN2CCCC2=O)cc1` here?
The value was 4.11%.

Which “hERG current change (%, negative = inhibition) at 10uM” value does the source give for `CC1(C)CC(=O)C2=C(C1)OC(N)=C(C#N)C2c1ccc2c(c1)OCO2` (centres unmarked) here?
Its value is 0.854%.

For `COc1cc(OC)cc(-c2nc(=S)n3ccsc3n2)c1`, which “hERG current change (%, negative = inhibition) at 10uM” value is on record?
Its value is 13.2%.

With `Cc1ccc(-c2cn(C[C@H]3CC[C@@H]([C@@H]4CC[C@H](Cn5cc(-c6ccc(C)cc6)nn5)O4)O3)nn2)cc1` as the molecule, how does the “hERG current change (%, negative = inhibition) at 10uM” value read?
The value was -7.99%.

Which “hERG current change (%, negative = inhibition) at 10uM” value does the source give for `CC(/C=N/NC(=O)CNc1n[nH]c(=O)[nH]c1=O)c1ccccc1` (centres unmarked) here?
Its value is 2.52%.

Which “hERG current change (%, negative = inhibition) at 10uM” value does the source give for `O=C(NCC(NS(=O)(=O)OCC(Cl)(Cl)Cl)c1ccccc1)C(F)(F)F` (centres unmarked) here?
The value was -1.57%.

Which “hERG current change (%, negative = inhibition) at 10uM” value does the source give for `Cc1cc(C)nc(SC2CC(=O)N(c3ccc(Br)cc3)C2=O)n1` (centres unmarked) here?
The value was 1.34%.

For `O=C(CCCN1CCC(NC(=O)c2ccccc2)CC1)c1ccc(Cl)cc1`, which “hERG current change (%, negative = inhibition) at 10uM” value is on record?
Its value is -77.8%.

`COCCN(Cc1ccccc1)C(=O)c1ccc2c(=O)n3c(nc2c1)CCC3` was tested. Which “hERG current change (%, negative = inhibition) at 10uM” value did it give?
The value was -22.1%.

With `COc1ccccc1NC(=O)NCC(=O)Nc1ccc(F)c(F)c1` as the molecule, how does the “hERG current change (%, negative = inhibition) at 10uM” value read?
The value was -5.59%.

How did the “hERG current change (%, negative = inhibition) at 10uM” value turn out when `O=C1C2CC=CCC2C(=O)N1c1ccc(OCC(O)Cn2nnc3ccccc32)cc1` (centres unmarked) was run?
The value was -1.31%.

With `CN(CCCNC(=O)c1cccc(N2CCCC2=O)c1)c1ccccc1` as the molecule, how does the “hERG current change (%, negative = inhibition) at 10uM” value read?
Its value is -11.4%.

For `Nc1nn2cc(-c3ccc(Br)cc3)nc2c2ccccc12`, which “hERG current change (%, negative = inhibition) at 10uM” value is on record?
Its value is 2.39%.

How did the “hERG current change (%, negative = inhibition) at 10uM” value turn out when `Cc1ccc(/C=N/NC(=O)c2ccc(Br)o2)s1` was run?
The value was -12.8%.

Which “hERG current change (%, negative = inhibition) at 10uM” value does the source give for `Cc1cccc(NS(=O)(=O)c2ccc(Cl)cc2)n1` here?
The value was 21.6%.

How did the “hERG current change (%, negative = inhibition) at 10uM” value turn out when `Cc1cc(Br)ccc1OCCN1CCCC1.O=C(O)C(=O)O` was run?
The value was -36.8%.

How did the “hERG current change (%, negative = inhibition) at 10uM” value turn out when `COc1ccc(CNC(=O)CCCCCn2c(SCC#N)nc3cc4c(cc3c2=O)OCO4)cc1` was run?
Its value is 4.73%.

How did the “hERG current change (%, negative = inhibition) at 10uM” value turn out when `CC1=Nc2ccccc2N=C(NC(=O)CSC(=S)N2CCN(C)CC2)C1c1ccccc1` (centres unmarked) was run?
Its value is -24.2%.

`COc1ccc(NC(=O)CN(C)C(=O)c2ccc(NC3CC3)c([N+](=O)[O-])c2)cc1` was tested. Which “hERG current change (%, negative = inhibition) at 10uM” value did it give?
The value was -72.8%.

Which “hERG current change (%, negative = inhibition) at 10uM” value does the source give for `Cc1ccc(N2C(=O)N(CC(=O)Nc3ccc(C)cc3C)C(=O)C2C)cc1` (centres unmarked) here?
Its value is 10.3%.

Which “hERG current change (%, negative = inhibition) at 10uM” value does the source give for `COc1cc(CNC2CCCCCC2)cc(OC)c1O.O=C(O)C(=O)O` here?
Its value is 19.7%.

`Cc1cc(Cl)ccc1C(=O)C1CCCN(C(=O)c2cc(C(C)C)no2)C1` (centres unmarked) was tested. Which “hERG current change (%, negative = inhibition) at 10uM” value did it give?
Its value is -22.7%.

For `COC(=O)c1c(C(=O)OC)c2ccccn2c1C(=O)c1ccc([N+](=O)[O-])cc1`, which “hERG current change (%, negative = inhibition) at 10uM” value is on record?
Its value is -15.5%.

Which “hERG current change (%, negative = inhibition) at 10uM” value does the source give for `CCOC(=S)N/C(=N\S(=O)(=O)c1ccc(C)cc1)c1ccccc1` here?
The value was 7.62%.

`O=C(Nc1ccc(NC(=O)N2CCN(c3ccccc3O)CC2)cc1)N1CCN(c2ccccc2O)CC1` was tested. Which “hERG current change (%, negative = inhibition) at 10uM” value did it give?
The value was 21.7%.

How did the “hERG current change (%, negative = inhibition) at 10uM” value turn out when `Cc1cccc(Nc2ccccc2C(=O)OCC(=O)N(C)C2CCS(=O)(=O)C2)c1C` (centres unmarked) was run?
The value was -10.3%.

`CC(C)OCCCNC(=O)c1cc(Sc2ccc(F)cc2)nc2ccccc12` was tested. Which “hERG current change (%, negative = inhibition) at 10uM” value did it give?
Its value is -5.77%.

With `CCOC(=O)c1ccc(NC(=S)NNC(C)(C)C)cc1` as the molecule, how does the “hERG current change (%, negative = inhibition) at 10uM” value read?
Its value is 13%.

How did the “hERG current change (%, negative = inhibition) at 10uM” value turn out when `O=C(NN1C(=O)/C(=C/C=C/c2ccco2)SC1=S)c1ccncc1` was run?
The value was 15.3%.

Which “hERG current change (%, negative = inhibition) at 10uM” value does the source give for `COc1ccc(S(=O)(=O)Nc2cccc(N(C)S(C)(=O)=O)c2)cc1C` here?
The value was -36%.

For `CN(C)S(=O)(=O)c1ccc(NC(=O)CN2CCOCC2)cc1`, which “hERG current change (%, negative = inhibition) at 10uM” value is on record?
Its value is 9.72%.

How did the “hERG current change (%, negative = inhibition) at 10uM” value turn out when `COc1ccccc1/C=C1\SC(=S)N(CCC(=O)NNC(=O)c2ccccc2OC)C1=O` was run?
Its value is 27.8%.

`CCOc1ccc(C2C(C#N)=C(N)N(N(C)C)C3=C2C(=O)CCC3)cc1` (centres unmarked) was tested. Which “hERG current change (%, negative = inhibition) at 10uM” value did it give?
The value was -7.87%.

How did the “hERG current change (%, negative = inhibition) at 10uM” value turn out when `C[C@]12CCC(=O)C=C1CC[C@@H]1[C@@H]2[C@@H](O)C[C@@]2(C)[C@H]1CC[C@]2(O)C(=O)COC(=O)CCC(=O)O` was run?
The value was 2.9%.

With `CCCCC(CC)Cn1c(O)c(/C=C2\C=NN=C2c2ccccc2)sc1=S` (centres unmarked) as the molecule, how does the “hERG current change (%, negative = inhibition) at 10uM” value read?
Its value is 13.9%.
